# Results published in PubChem BioAssay AID1347417 (National Center for Advancing Translational Sciences (NCATS), 2020).
# Among all 120,000 compounds or so, about 5,300 (4.4%) were called active. Inconclusive means that the source gave no clear call. Such entries were picked first, then a sample of the others. Calls follow the shape of the dose curve; as a rule, active = well fitted inhibition curve with a large enough effect; inconclusive = small, poorly fitted or top-dose-only effect; inactive = no such curve, though single readings can be large or run the other way. Where the call is inconclusive, the potency comes from a doubtful curve fit.
# Assay: qHTS Primary assay for Inhibitors of Plasmodium falciparum Dd2 growth in vitro; also: nearly all actives have a fitted effect of over 65% in size
# Settings: P. falciparum Dd2 growth, SYBR Green, 72 h; series mostly up to 28.9 µM
# Procedure, shortened: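 Readout: SYBR Green fluorescence, 485 nm excitation, 535 nm emission, after ~16 h lysis at 37C. Before that, Dd2-infected red cells (2.5% hematocrit) grew 72 h with compound, 29 uM top final concentration.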
# Potency is read from the fitted curve at half-maximal effect; tags tell the direction and shape of the fitted curve.
row,Structure (SMILES),Potency
1,O=C(Nc1ccc(F)cc1)c1cc(-c2ccc[nH]2)n[nH]1,inactive
2,CN1Cc2cccn2CC1CNC(=O)c1nccn1C (stereo not given),"inconclusive: 11.2 µM [inhibitor, single point]"
3,COc1cccc(NC(=O)Cn2c(=O)n(Cc3ccc4c(c3)OCO4)c(=O)c3oc4ccccc4c32)c1,"inconclusive: 17.8 µM [inhibitor, single point]"
4,O=C(CCC[C@@H]1[C@H]2CCCN3CCC[C@@H](CN1C(=O)c1cc(F)ccc1F)[C@@H]23)NCC1CC1,"inconclusive: 20 µM [inhibitor, single point]"
5,CC(NC(=O)Cc1ccc(N(Cc2cccc(F)c2)C(=O)c2ccco2)cc1)c1ccccc1 (stereo not given),"inconclusive: 1.58 µM [inhibitor, partial curve, poor fit]"
6,Cc1noc(C)c1S(=O)(=O)N1C[C@@H](Oc2ccccc2)C[C@H]1C(=O)N1CCCC1,"inconclusive: 12.6 µM [inhibitor, single point]"
7,Cc1ccc(-n2ncc(C(=O)NCCN3CCN(C)CC3)c2C2CCN(C(=O)OC(C)(C)C)CC2)cc1C,"inconclusive: 5.01 µM [inhibitor, partial curve]"
8,NC(=O)c1ccc(CC2CCN(C(=O)C3CCOCC3)CC2)cc1,inactive
9,CCNC(=O)NCC1CCN(Cc2cc(Cl)cc(Cl)c2)C1 (stereo not given),"inconclusive: 12.6 µM [inhibitor, single point]"
10,C[C@@H]1C(=O)O[C@H]2[C@H]1CC[C@@]1(C)Cc3sc(NCCc4ccccn4)nc3[C@@H](C)[C@H]21,"inconclusive: 2.51 µM [inhibitor, full curve, poor fit]"
11,COc1ccc(C(=O)N2CCC(N3C(=O)CCC3C(=O)NCc3ccccc3)CC2)cc1 (stereo not given),inactive
12,COCCOc1cc(C)c2c(c1C)C[C@H](C(C)C(=O)NC(C)(C)C)CC2 (stereo not given in full),inactive
13,O=C1NCCCCCN(C(=O)c2ccncc2)[C@H]2CCC[C@@H]12,inactive
14,O=C1CO[C@H]2CN(Cc3ccccc3)C[C@H]2N1Cc1cccc(C(F)(F)F)c1,"inconclusive: 2.24 µM [inhibitor, partial curve, poor fit]"
15,Cc1cccc(N2CCN(CC(=O)N3C[C@@H](C)[C@](O)(C4CCC4)C3)CC2)c1,"inconclusive: 10 µM [inhibitor, single point]"
16,CC1CCC(NC(=O)c2ccc(CSc3nc4ccncc4n3Cc3ccc(F)cc3)cc2)CC1 (stereo not given),"inconclusive: 17.8 µM [inhibitor, single point]"
17,CCOC(=O)C1CCN(C(=O)c2coc(COc3cccc(F)c3)n2)CC1,inactive
18,O=C(c1csc(N2CCN(c3ccccc3)CC2)n1)N1CCN(c2ccccn2)CC1,"inconclusive: 12.6 µM [inhibitor, single point]"
19,Cc1nn(CCCC(=O)Nc2ccccc2C(F)(F)F)c(=O)c2nn(-c3ccccc3)c(C)c12,"inconclusive: 0.0224 µM [inhibitor, full curve, poor fit]"
20,CN(C)C[C@@H]1CN(Cc2cccnc2)C[C@H]1NC(=O)C1(C)CCOCC1,inactive

row,Structure (SMILES),Potency
1,Cc1ccc(S(=O)(=O)c2cn(Cc3ccccc3)c3cc(N4CCOCC4)c(F)cc3c2=O)cc1,active: 7.94 µM
2,O=C1Nc2ccc(-c3cccc(C(F)(F)F)c3)cc2C(=O)N2CCN(C(=O)c3ccccc3)C[C@H]12,"inconclusive: 1 µM [inhibitor, full curve, poor fit]"
3,CCc1ccc(NC(=O)c2cc(S(=O)(=O)NC3CCCCCC3)ccc2F)cc1,active: 7.94 µM
4,COc1ccc(CN2C(=Nc3ccccc3)S[C@H]3[C@@H]2[C@@H](O)[C@H](O)C[C@@H]3C(N)=O)cc1,inactive
5,O=C(CCC[C@H]1NC[C@@H]2CC1CN(Cc1ccccc1)C2)NCCCc1ccccc1,"inconclusive: 17.8 µM [inhibitor, single point]"
6,Cc1nn(-c2ccccc2)c(C)c1CN1CCCC12Cc1ccccc1CNC2=O (stereo not given),active: 2.24 µM
7,CCCn1ccc2c(OCC(=O)Nc3ccc(OC)c(OC)c3)cccc2c1=O,"inconclusive: 17.8 µM [inhibitor, single point]"
8,CCc1nc2c(c(-c3ccc(O)cc3)n1)CN(Cc1ccc(C(F)(F)F)cc1)CC2,"inconclusive: 3.98 µM [inhibitor, single point]"
9,COc1cccc(N2CC(C(=O)N3CCC(C#N)CC3)NC2=O)c1 (stereo not given),inactive
10,O=C(N[C@@H]1CN(Cc2ccccn2)CCC[C@H]1O)c1ccc(OCc2ccccc2)cc1,active: 2.51 µM
11,COc1ccccc1CNC(=O)c1ccc(CSc2nc3ccncc3n2Cc2cccc(F)c2)cc1,active: 3.55 µM
12,C[C@H]1[C@@H]2[C@@H](O)C([C@H](C)C(=O)NCc3ccc(F)cc3)CC[C@@]2(C)CC[C@@H]1NC(=O)Cc1ccccc1 (stereo not given in full),"inconclusive: 7.08 µM [inhibitor, partial curve, poor fit]"
13,Cc1cccc(C(=O)NCC(=O)N2CCCCCCNC(=O)CC2c2ccccc2)c1 (stereo not given),"inconclusive: 14.1 µM [inhibitor, single point]"
14,CN(CC1(C)CCOCC1)C(=O)c1ccoc1,"inconclusive: 0.112 µM [inhibitor, full curve]"
15,COc1ccc2c(Sc3ccccc3)c(C(=O)NCc3cc(Br)ccc3OC)[nH]c2c1,"inconclusive: 11.2 µM [inhibitor, single point]"
16,Cc1noc2c(NC3CCC(O)CC3)cc(-c3ccc(F)cc3)nc12 (stereo not given),"inconclusive: 12.6 µM [inhibitor, partial curve]"
17,COCCNC(=O)[C@H]1C[C@H](Oc2ccccc2)CN1C(=O)NCC(C)C,inactive
18,Cn1nc(C2CCCN2)c2c(C(=O)NCc3cccs3)cc(C3CC3)nc21 (stereo not given),"inconclusive: 6.31 µM [inhibitor, partial curve, poor fit]"
19,Cc1nn2c(c1-c1ccccc1OCc1ccccc1)N(C(=O)COc1ccccc1)CCC2,"inconclusive: 3.16 µM [inhibitor, single point]"
20,O=C(c1cccs1)N1[C@H]2CC[C@@H]1c1cnc(-c3ccccc3)nc1C2,"inconclusive: 11.2 µM [inhibitor, single point]"
